The record followed here is PubChem BioAssay AID1745853 (National Center for Advancing Translational Sciences (NCATS), 2022).

Common to all, as to assay: Primary Screen for Target Class Profiling of Small Molecule Inhibitors of Methyltransferases
Assay [1] concerns the target Glycine N-methyltransferase (Homo sapiens) (UniProt Q14749). The following applies: purified enzyme, MTase-Glo SAH luminescence; measured here: GNMT inhibition; at 40 µM; stronger effect = lower value. The text has this:
(§1) PI: Matthew D. Hall Ph.D. and Quinlin M. Hanson Ph.D.
(§2) National Center for Advancing Translational Sciences (NCATS)
(§3) National Institute of Health (NIH), Rockville, MD
(§4) Target class profiling (TCP) is a chemical biology approach amenable to investigating understudied biological targets. TCP is achieved by developing a generalizable assay platform and applying it to screen a curated set of compound libraries against representative members of a target class. Small molecule methyltransferases (SMMTase) are a subclass of methyltransferase that act on metabolites to modulate signaling pathways, metabolize xenobiotics, or balance the available methyl pool. We screened four curated libraries totaling 27,574 unique compounds against the SMMTases nicotinamide N-methyltransferase (NNMT), phenylethanolamine N-methyltransferase (PNMT), histamine N-methyltransferase (HNMT), glycine N-methyltransferase (GNMT), catechol O-methyltransferase (COMT), and guanidinoacetate N-methyltransferase (GAMT). The data generated by this TCP can be leveraged for informed tool molecule development. For example, in the associated publication we identified a chemotype of HNMT-selective inhibitors. Additionally, we identified a putative SMMTase-selective inhibitor with potential as a tool molecule for studying broader methyltransferase biology.
(§5) High-through put screening assays were developed at the National Center for Advancing Translational Science (NCATS) for the enzymes NNMT, PNMT, HNMT, GNMT, COMT, and GAMT. Enzymatic activity was measured as a function of SAM cofactor conversion using the MTase Glo kit (Promega) for all enzymes. All assays were performed in 1536-well format with substrates and SAM concentrations at KM values. Enzyme concentration and assay timing were optimized for 10-20% SAM conversion. Initial screening of 27,574 compounds was done as single-point assays using the highest compound concentration (40 uM). […] These compounds were replated in 11-point dose response and assayed against NNMT, PNMT, HNMT, GNMT, COMT, GAMT, and a counter-assay. The IC50 and efficacy (maximal response) values were determined for each dose-response curve. These values are also accounted for in the area under the curve (AUC) values.
(§6) PROTOCOL TABLE (as described by Inglese J, Shamu CE and Guy RK. 2007)
(§7) SEQUENCE No. (e.g., 1, 2, 3, etc.); […] (e.g., Cells, Incubation, Reagent, etc.); VALUE; DESCRIPTION.
(§8) 1; Reagent; 2 uL; SMMTase Enzyme (2x) in reaction buffer, columns 1- 48.
(§9) 2; Reagent; 1 uL; SAM (4x) in reaction buffer, columns 1-48.
(§10) 3; Controls; 23 nL; DMSO in column 4; sinefungin in DMSO (0 uM - 40 uM) in 7-point 1:2 dilution series (n = 2) in column 2.
(§11) 4; Compounds; 23 nL; Columns 5-48.
(§12) 5; Reagent; 1 uL; Substrate (4x) in reaction buffer, columns 2-48.
(§13) 6; Time; 20-30 min; Incubation.
(§14) 7; Reagent; 1 uL; MTase-Glo reagent (5X), columns 1-48.
(§15) 8; Time; 30 min; Incubation.
(§16) 9; Reagent; 5 uL; MTase-Glo Detection reagent, columns 1-48.
(§17) 10; Time; 30 min; Incubation, luminescence evolution.
(§18) 11; Detection; Luminescence; ViewLux uHTS Microplate Imager (PerkinElmer).
(§19) NOTES (numbers refer to Sequence numbers above)
(§20) 1, 2, 5. White Medium Binding Greiner 1536-well plates (Cat #789175-F, Greiner Bio-One, Monroe, NC); Reaction buffer: 50 mM Tris, pH 8.0, 3 mM MgCl2, 1 mM EDTA, 50 mM NaCl, 1 mM DTT, and 0.1 mg/mL BSA. Evaporation was prevented by covering assay plates with metal lids containing holes to allow gas diffusion.
(§21) 1. Six SMMTase were profiled: HNMT, GNMT, PNMT, COMT, NNMT, GAMT
(§22) 5. The corresponding substrate was used for each enzyme: HNMT - 5.3 uM Histamine; GNMT - >500 uM Glycine; PNMT - 16.2 uM Norephinephrine; COMT - 13.7 uM Norephinephrine; NNMT - 3.8 uM Nicotinamide; GAMT - 2.5 uM Guanidinoacetate.6, 8, 10. Room temperature
(§23) 6. Final reaction conditions: 10 nM COMT, 5 uM SAM, 15 uM norepinephrine, 50 mM Tris, pH 8.0, 3 mM MgCl2, 1 mM EDTA, 50 mM NaCl, 1 mM DTT, and 0.1 mg/mL BSA; refer to tables 2 and S1 for specific timing.
8. […]

The target in assay [2] is Guanidinoacetate N-methyltransferase (Homo sapiens) (UniProt Q14353). Particulars: purified enzyme, MTase-Glo SAH luminescence; measured here: GAMT inhibition; at 40 µM; stronger effect = lower value.
Text: as §1, §2, §3, §4, §5, §6, §7, §8, §9, §10, §11, §12, §13, §14, §15, §16, §17, §18, §19, §20, §21, §22, §23
8. […]

Assay [3] concerns the target Histamine N-methyltransferase (Homo sapiens) (UniProt P50135). The following applies: purified enzyme, MTase-Glo SAH luminescence; measured here: HNMT inhibition; at 40 µM; stronger effect = lower value.
Text: as §1, §2, §3, §4, §5, §6, §7, §8, §9, §10, §11, §12, §13, §14, §15, §16, §17, §18, §19, §20, §21, §22, §23
8. […]

Assay [4] deals with Nicotinamide N-methyltransferase (Homo sapiens) (UniProt P40261). The following applies: purified enzyme, MTase-Glo SAH luminescence; measured here: NNMT inhibition; at 40 µM; stronger effect = lower value.
Text: as §1, §2, §3, §4, §5, §6, §7, §8, §9, §10, §11, §12, §13, §14, §15, §16, §17, §18, §19, §20, §21, §22, §23
8. […]

Assay [5] has as its target Phenylethanolamine N-methyltransferase (Homo sapiens) (UniProt P11086). The following applies: purified enzyme, MTase-Glo SAH luminescence; measured here: PNMT inhibition; at 40 µM; stronger effect = lower value.
Text: as §1, §2, §3, §4, §5, §6, §7, §8, §9, §10, §11, §12, §13, §14, §15, §16, §17, §18, §19, §20, §21, §22, §23
8. […]

Structures are written as SMILES. Some of the results follow. Further columns of the screen follow, without active or inactive calls.
On the % scale 0 is the no-effect control and ±100 the full control effect.

Take `C[C@@H]1O[C@@H](O[C@H]2[C@H](O[C@H]3[C@H](O[C@H]4CC[C@@]5(C)C(CC[C@]6(C)C5CC=C5[C@@H]7CC(C)(C)C[C@@H](O)[C@]7(C)CC[C@]56C)C4(C)C)O[C@H](C(=O)O)[C@@H](O)[C@@H]3O)O[C@H](C(=O)O)[C@H](O)[C@@H]2O)[C@H](O)[C@H](O)[C@H]1O` (stereo partly drawn): the activity change, negative = inhibition in assay [1] was -3.06%; in assay [2], 0.057%; in assay [3] it was -0.773%; in assay [4] it was -27.8%; in assay [5], 4.38%.

For the compound `COc1cc(/C=C/C(=O)OC2CC(C)=C(C(=O)O)/C2=C/CO[C@@H]2O[C@H](CO)[C@@H](O)[C@H](O)[C@H]2O)ccc1O` (stereo partly drawn), the activity change, negative = inhibition in assay [1] is 4.58%; in assay [2], 6.73%; in assay [3], 12.9%; in assay [4] it was -3.8%; in assay [5], 10.4%.

With `c1ccc(-c2ccc(C(c3ccccc3)n3ccnc3)cc2)cc1` (stereo not drawn), the activity change, negative = inhibition in assay [2] is -10.4%; in assay [4], -43.8%; in assay [5], -11%.

For `CC(C)CCNC(=O)C1(C)Cn2c(ccc2-c2ccco2)C(=O)N1Cc1ccccc1Cl` (stereo not drawn), the activity change, negative = inhibition was -3.38% in assay [1]; 3.36% in assay [2]; 2.48% in assay [3]; -5.5% in assay [4]; -2.1% in assay [5].

For the compound `Cc1ccc(C)c(Cn2nc3n(CCC(C)C)c(=O)c4ccc(C(=O)NC(C)C)cc4n3c2=O)c1`, the activity change, negative = inhibition in assay [1] is 1.26%; in assay [2], -0.008%; in assay [3], 11.3%; in assay [4], -2.91%; in assay [5] it was -1.95%.

For `CN1c2cccnc2CN(C2CCC(CO)CC2)CC[C@H]1CO` (stereo partly drawn), the activity change, negative = inhibition was 0.1% in assay [1]; 1.13% in assay [2]; 0.291% in assay [3]; 1.68% in assay [4]; 2.92% in assay [5].

Take `Cc1cc(NS(=O)(=O)c2ccc3[nH]c4c(c3c2)CCCC4)ccc1Br`: the activity change, negative = inhibition in assay [1] was -1.83%; in assay [2], 4.55%; in assay [3] it was -2.52%; in assay [4] it was -5.57%; in assay [5] it was 1.81%.

With `CC(C)CNC(=O)N(C)C1CCc2nn(C)c(=O)n2CC1` (stereo not drawn), the activity change, negative = inhibition is -0.104% in assay [1]; -0.834% in assay [2]; 2.75% in assay [3]; -3.76% in assay [4]; -6.03% in assay [5].

With `COc1cccc(Nc2cc3c(cn2)CN(Cc2cccnc2)CCN3)c1`, the activity change, negative = inhibition was -15.6% in assay [1]; -8.84% in assay [2]; -91.6% in assay [3]; -20.4% in assay [4]; -19.2% in assay [5].

Regarding `CCCn1c(=O)c2ccc(C(=O)NCC(C)C)cc2n2c(=O)n(Cc3ccc(Cl)cc3)nc12`, the activity change, negative = inhibition is 1.74% in assay [1]; 4.12% in assay [2]; 4.2% in assay [3]; -0.119% in assay [4]; 0.642% in assay [5].

On to `COc1ccc(-c2noc(-c3cccn3CC(=O)Nc3cccc(Cl)c3C)n2)cc1F`, for which the activity change, negative = inhibition in assay [1] is -0.622%; in assay [2], -2.48%; in assay [3] it was 0.532%; in assay [4] it was -3.23%; in assay [5], -3.69%.

In the case of `O=c1[nH]c2ccccc2n1CCN1CCN(c2cccc(C(F)(F)F)c2)CC1`, the activity change, negative = inhibition in assay [1] is 1.47%; in assay [2], 10.7%; in assay [3], 7.32%; in assay [4], -13.5%; in assay [5] it was -0.818%.

For `CCOC(=O)c1cn(C2CN(S(=O)(=O)Cc3ccccc3)C2)nn1`, the activity change, negative = inhibition was -1.12% in assay [1]; -4.33% in assay [2]; 1.38% in assay [3]; -1.44% in assay [4]; 0.383% in assay [5].

Regarding `CCC(C)NC(=O)c1ccc2c(=O)n(CC(C)C)c3nn(CC(=O)Nc4ccc(C)cc4)c(=O)n3c2c1` (stereo not drawn), the activity change, negative = inhibition in assay [1] came to 2.76%; in assay [2], 0%; in assay [3], 0.341%; in assay [4], 1.85%; in assay [5], 2.74%.

With `CC1(C(=O)NC2CCCCCC2)Cn2nc(-c3ccco3)cc2C(=O)N1CCc1ccccc1` (stereo not drawn), the activity change, negative = inhibition in assay [1] was 0.847%; in assay [2], 0%; in assay [3], 4.09%; in assay [4], 5%; in assay [5] it was -0.228%.
